Columns and labels:
MRSA strain USA300 [1] = assay: microbe, parasite or virus in culture; settings: for Hemolysis / hemolysis at 1 µg/mL / hemolysis at 10 µg/mL: DMSO control = 100; for hemolysis at 1 µg/mL / hemolysis at 10 µg/mL: Staphylococcus aureus, Erythrocyte, in Oryctolagus cuniculus; for inhibition of rabbit blood hemolysis compared to diflunisal: 1 μg/mL
MRSA strain USA300 [2] = assay: microbe, parasite or virus in culture; settings: for Growth: DMSO control = 100; for activity at 1 µg/mL / activity at 10 µg/mL: Staphylococcus aureus, read-out: Growth; for effect on the growth of the bacteria: 1 μg/mL

| Structure (SMILES) | Hemolysis (MRSA strain USA300 [1]; 10 μg/mL compound) | Growth (MRSA strain USA300 [2]; 10 μg/mL compound) | hemolysis at 1 µg/mL (MRSA strain USA300 [1]; 1 μg/mL compound) | hemolysis at 10 µg/mL (MRSA strain USA300 [1]; 10 μg/mL compound) | activity at 1 µg/mL (MRSA strain USA300 [2]) | activity at 10 µg/mL (MRSA strain USA300 [2]) | also measured |
| --- | --- | --- | --- | --- | --- | --- | --- |
| CCc1cc(C(=O)COc2c(F)cccc2F)c(O)cc1O [4b-13] | 1.2 ± 0.1% | 85.1% |  |  |  |  | Hemolysis (MRSA strain USA300 [1]; 1 μg/mL compound): 48.1 ± 3.5%; Growth (MRSA strain USA300 [2]; 1 μg/mL compound): 105% |
| CCCc1cc(C(=O)COc2c(F)c(F)c(F)c(F)c2F)c(O)cc1O [4e-18] |  |  | 41.9 ± 0.4% | -2.9 ± 0.4% | 97.5% | 1.3% |  |
| CC(C)(C)c1ccc(OCC(=O)c2c(O)cc(O)cc2O)cc1 [4c-20] |  |  | 87 ± 0.5% | 0.7% | 101% | 2% |  |
| O=C(COc1ccccc1)c1ccc(O)cc1O [4a-0] | 31.5 ± 0.9% | 109.7% |  |  |  |  |  |
| CCc1cc(C(=O)COc2c(F)c(F)c(F)c(F)c2F)c(O)cc1O [4b-18] |  |  | 117 ± 6.4% | 0.7% | 97.2% | 4.1% |  |
| Cc1cccc(OCC(=O)c2ccc(O)cc2O)c1 [4a-10] |  |  |  | 90.5 ± 6.2% |  | 100% |  |
| Cc1cc(C(=O)COc2cccc(F)c2)c(O)cc1O [4d-1] |  |  |  | 53 ± 13.2% |  | 103% |  |
| CCc1cc(C(=O)COc2cccc(C(=O)O)c2)c(O)cc1O [4b-24] | 70.3 ± 3.4% | 106.3% |  |  |  |  |  |
| CCc1cc(C(=O)COc2ccc(C(C)(C)C)cc2)c(O)cc1O [4b-20] |  |  | 50.6 ± 1.7% | 0.4% | 93.6% | 1% |  |
| O=C(COc1ccc(F)c(F)c1)c1c(O)cc(O)cc1O [4c-14] |  |  |  | 37.8 ± 2.8% |  | 113% |  |
| O=C(COc1ccccc1)c1c(O)cc(O)cc1O [4c-0] | 46.3 ± 1.9% | 108.2% |  |  |  |  |  |
| O=C(COc1ccc(I)cc1)c1c(O)cc(O)cc1O [4c-8] | 0.1 ± 0.0% | 45% |  |  |  |  | Hemolysis (MRSA strain USA300 [1]; 1 μg/mL compound): 146.9 ± 6.7%; Growth (MRSA strain USA300 [2]; 1 μg/mL compound): 101.9% |
| O=C(COc1cc(F)c(F)cc1F)c1c(O)cc(O)cc1O [4c-16] | 21.7 ± 2.3% | 111% |  |  |  |  |  |
| CCc1cc(C(=O)COc2ccc(Br)cc2)c(O)cc1O [4b-7] | −0.1 ± 0.0% | 10.5% |  |  |  |  | Hemolysis (MRSA strain USA300 [1]; 1 μg/mL compound): 159.4 ± 27.3%; Growth (MRSA strain USA300 [2]; 1 μg/mL compound): 104% |
| CCCc1cc(C(=O)COc2c(F)cccc2F)c(O)cc1O [4e-13] | 1.3 ± 0.1% | 38% |  |  |  |  | inhibition of rabbit blood hemolysis compared to diflunisal (MRSA strain USA300 [1]): greater inhibition of rabbit blood hemolysis; Hemolysis (MRSA strain USA300 [1]; 1 μg/mL compound): 27.3 ± 1.9%; effect on the growth of the bacteria (MRSA strain USA300 [2]): without affecting the growth of the bacteria; Growth (MRSA strain USA300 [2]; 1 μg/mL compound): 105.9% |
| CCCc1cc(C(=O)COc2ccc(I)cc2)c(O)cc1O [4e-8] |  |  | 27.6 ± 2.7% | 16.7 ± 0.5% | 99.5% | 89.9% | inhibition of rabbit blood hemolysis compared to diflunisal (MRSA strain USA300 [1]): greater inhibition of rabbit blood hemolysis; effect on the growth of the bacteria (MRSA strain USA300 [2]): without affecting the growth of the bacteria |
| CCCc1cc(C(=O)COc2ccc(C(=O)O)cc2)c(O)cc1O [4e-25] | 8.3 ± 0.5% | 102.1% |  |  |  |  | Hemolysis (MRSA strain USA300 [1]; 1 μg/mL compound): 66.1 ± 4.7%; Growth (MRSA strain USA300 [2]; 1 μg/mL compound): 102.8% |
| O=C(COc1ccc(-c2ccccc2)cc1)c1ccc(O)cc1O [4a-21] | 29.4 ± 2.9% | 100.4% |  |  |  |  |  |
| O=C(COc1cccc(F)c1)c1c(O)cc(O)cc1O [4c-1] |  |  | 120 ± 18.5% | 1.4 ± 0.1% | 105% | 76.9% |  |
| COC(=O)c1cccc(OCC(=O)c2cc(C)c(O)cc2O)c1 [4d-28] |  |  |  | 14.6 ± 1% |  | 96.7% |  |
| CCCc1cc(C(=O)COc2ccc(C(=O)OC)cc2)c(O)cc1O [4e-29] |  |  | 109 ± 17.3% | 3.1 ± 0.1% | 104% | 95.9% |  |
| CCCc1cc(C(=O)COc2ccccc2C(=O)OC)c(O)cc1O [4e-27] |  |  |  | 25.2 ± 3% |  | 105% |  |
| O=C(COc1ccc(Br)cc1)c1ccc(O)cc1O [4a-7] |  |  | 97 ± 3.9% | 5.7 ± 1.1% | 98.7% | 68.9% |  |
| CCc1cc(C(=O)COc2ccc(I)cc2)c(O)cc1O [4b-8] |  |  | 111 ± 10% | -0.3% | 102% | 17.7% |  |
| CCc1cc(C(=O)COc2ccccc2F)c(O)cc1O [4b-5] | 9.3 ± 0.1% | 105.2% |  |  |  |  | Hemolysis (MRSA strain USA300 [1]; 1 μg/mL compound): 85.5 ± 10.4%; Growth (MRSA strain USA300 [2]; 1 μg/mL compound): 104.9% |
| O=C(COc1ccccc1C(=O)O)c1ccc(O)cc1O [4a-23] | 107.6 ± 1.8% | 100.8% |  |  |  |  |  |
| COC(=O)c1ccc(OCC(=O)c2c(O)cc(O)cc2O)cc1 [4c-29] | 103.3 ± 1.1% | 98.2% |  |  |  |  |  |
| CCc1cc(C(=O)COc2ccccc2C)c(O)cc1O [4b-9] | 0.4 ± 0.0% | 51.4% |  |  |  |  | Hemolysis (MRSA strain USA300 [1]; 1 μg/mL compound): 72.9 ± 5.5%; Growth (MRSA strain USA300 [2]; 1 μg/mL compound): 103.7% |
| O=C(COc1ccc(-c2ccccc2)cc1)c1c(O)cc(O)cc1O [4c-21] |  |  | 114 ± 16.9% | 3 ± 0.1% | 103% | 1.9% |  |
